According to ChEMBL document CHEMBL4888484, “Replenishing the malaria drug discovery pipeline: Screening and hit evaluation of the MMV Hit Generation Library 1 (HGL1) against asexual blood stage Plasmodium falciparum ,using a nano luciferase reporter read-out” (2022):
Among all 150,000 compounds or so, about 540 (0.36%) showed an effect of 50% or more. Some of the results follow.

These compounds were tested on Plasmodium falciparum (assay: Primary screen in NF54 nanoGlo assay, in single point, at 2uM, 72h; a lower Z score goes with more inhibition). Details: timepoint 72 hour.
Type: functional, Erythrocyte

Row | Compound | % Inhibition | Z score
1 | CC(C)C1OCCC1C(=O)Nc1cnccc1-c1ccccc1 (configuration not stated) | 0% | 0.06
2 | CCC(O)CN1CCOC(CN(CC(C)C)C(=O)c2ccccc2)C1 (configuration not stated) | -5% | 0.72
3 | Cc1ccccc1-c1noc(Cn2ccnc2-c2cc3n(n2)CCCNC3)n1 | -3% | 0.5
4 | CCOc1ccc(C(=O)NCC(=O)N[C@H]2C[C@@H](OC(C)C)C2)cc1 | -2% | 0.24
5 | CCn1cc(NC(=O)NCC(F)(F)F)cn1 | -6% | 0.74
6 | Cc1nc2nc(-c3ccc(Cl)cc3)nn2c(C)c1CC(=O)N1CCCCC1 | -19% | 2.8
7 | Cc1cnc([C@H](C)NC(=O)N(Cc2ccccc2)CC(C)(C)O)s1 | 3% | -0.33
8 | Cn1cc(C2CC2C(=O)Nc2cc(C(F)(F)F)c[nH]c2=O)cn1 (configuration not stated) | -9% | 0.83
9 | CCn1cc(C(=O)Nc2cc(S(=O)(=O)CC)ccc2O)c(C)n1 | -6% | 0.8
10 | CCN1C(=O)CCc2cc(N[C@@H](COC)C3CCOCC3)ccc21 | 10% | -1.14
11 | CCn1c(CNc2ccccc2C(=O)NCc2ccco2)nc2cc(S(=O)(=O)N(C)C)ccc21 | -19% | 1.81
12 | O=C(Nc1nc2ccccc2s1)C1CCN(c2ccc(-c3cccnc3)nn2)CC1 | 0% | 0.03
13 | CN(C)C(=O)c1ccc2c(c1)N(CC(=O)N1CCC(Cc3ccccc3)CC1)C(=O)CO2 | -14% | 1.84
14 | OCCOCCNCc1c(Cl)cccc1Cl | -10% | 1.16
15 | Cc1cc(CNC(=O)[C@H]2CCC[C@H](O)C2)cc(C)n1 | 0% | 0.08
16 | Cc1ccc(CCC(=O)NCCc2n[nH]c(C)n2)c(C)c1 | 2% | -0.22
17 | Cc1cnc(C)c(-c2cc(O)c3c(c2)CN(CC[C@H]2CCCN2C)CCO3)n1 | -17% | 2.09
18 | N#Cc1ccc(C(=O)NS(=O)(=O)CCCC(F)(F)F)cn1 | -6% | 0.94
19 | CCCCN(C(=O)c1ccc2nnnn2c1)[C@@H](C)CC | -3% | 0.58
20 | CCc1noc(C)c1C(=O)N[C@@H]1COCC[C@@H]1Oc1ccc(C)nc1 | -1% | 0.13
21 | O=C(N[C@H]1CO[C@@H](CN2CCC(F)(F)CC2)[C@@H]1O)C1CCOCC1 | -5% | 0.84
22 | Cc1nc(C)c(CNc2ccn(CCc3ccncc3)n2)s1 | -10% | 1.28

Row | Compound | % Inhibition | Z score
23 | CC(C)=CCN1C(=O)[C@@H]2CC[C@H]1CN(C(=O)Nc1ccc(F)cc1F)C2 | 3% | -0.53
24 | COc1ccccc1C(=O)NC[C@H]1CCCCC(=O)N1 | -14% | 2.66
25 | CCn1cnnc1CCNC1CCN(c2ccc3c(c2)CCC3)CC1 | -2% | 0.26
26 | OC[C@]1(F)CCCN(CC2CCC2)C1 | -15% | 1.5
27 | COc1nccc(C(=O)N(C)C2(Cc3ccccc3)CCCC2)n1 | -7% | 0.89
28 | CCC(=O)Nc1c(-c2ccccn2)nsc1C(=O)NCc1ccc(F)c(Cl)c1 | 7% | -0.98
29 | O=C1CN(S(=O)(=O)c2ccc(Cl)cc2)C[C@H]2c3ccccc3CCN12 | -8% | 1.09
30 | COCCN1C(=O)CN(C2CCN(CC(=O)Nc3cccc(F)c3)CC2)C1=O | -6% | 0.66
31 | CCN(C(=O)[C@H]1CCOC1)c1ccc(Cl)c(F)c1 | 2% | -0.37
32 | N#CC1(C(=O)N2CCCCCCC2)CCC1 | -7% | 1.07
33 | CCn1cncc1Cn1ccnc1-c1nccn1C | 9% | -1.31
34 | CC(C)=CC1C(C(=O)N2CCCC2C(=O)Nc2nc3ccccc3s2)C1(C)C (configuration not stated) | -10% | 1.65
35 | CCn1ccc(C(=O)N[C@@H]2CN(c3ccncn3)C[C@H]2CO)n1 | -12% | 1.75
36 | CCc1cc(C(=O)Nc2cnns2)[nH]n1 | -17% | 1.7
37 | COc1ccc(C(=O)N[C@@H]2CCC[C@@H]2C(=O)N2CCN(c3cccc(C)c3)CC2)cc1 | -7% | 0.91
38 | Cc1ccc(CN(C)C(=O)Nc2cc([C@@H]3CCCO3)nn2C)s1 | -12% | 1.19
39 | CN(C)c1ccc(CCc2ccnc3ccccc23)cc1 | 2% | -0.24
40 | FC(F)(F)C1CCN(Cc2nc(C3CCCC3)no2)CC1 | -4% | 0.33
41 | O=C(NC1CCc2ccccc21)C1CCN(C(=O)c2ncn3c2COC(c2ccccc2)C3)CC1 (configuration not stated) | -33% | 3.04
42 | COc1cccc(C(=O)N2CCN(C(=O)CCc3ccncc3)CC2)c1 | -18% | 3.4
43 | O=C(Nc1ccnn1C1CCN(Cc2cccc3nonc23)CC1)c1cccc(F)c1 | -4% | 0.6
44 | CN=C(NCCOC)NCCc1cccc(F)c1 | -10% | 1.52

Row | Compound | % Inhibition | Z score
45 | Cc1cc(NC(=O)N2CCC(OC3CCC3)CC2)cn2ccnc12 | -1% | 0.14
46 | O=C(Cn1cnc2cc3ccccc3cc2c1=O)Nc1cc(C(F)(F)F)ccc1N1CCOCC1 | -9% | 1
47 | CC1(C)C[C@@H](c2cn(Cc3ccc(C(=O)O)s3)nn2)CCO1 | -4% | 0.8
48 | CCCCNC(=O)Cc1noc(-c2ccccc2-n2cnnn2)n1 | -19% | 3.87
49 | CC(C)c1nccc(N2CC3C(C2)C3(C)C)n1 (configuration not stated) | 2% | -0.33
50 | Cc1cccc(-c2nn3c(N4CCN(c5ccccn5)CC4)cc(C)nc3c2C)c1 | 5% | -0.84
51 | Cn1nc2n(c1=O)CCN(C(=O)c1ccc3[nH]ccc3c1)CC2 | -14% | 1.78
52 | CCc1cccc(NC(=O)N2C[C@@H](F)C[C@H]2C(=O)N2CCc3ccccc3C2)c1 | -8% | 1.3
53 | N#C[C@@H]1COCCN1C(=O)c1cccc(N2CCCC2=O)c1 | 0% | -0.02
54 | Cc1cc(C)cc(CCC(=O)NC2(C#N)CCCCC2)c1 | 1% | -0.25
55 | CC[C@H]1CCc2[nH]c(=O)c(C(=O)Nc3nccc4ccncc34)cc2C1 | -4% | 0.55
56 | CCc1ccc(O)c(NC(=O)[C@H](C)N)c1 | -7% | 0.85
57 | Cc1cc(C(=O)N(C)CCN(C)C2CCCC2)cc(C)c1O | -3% | 0.53
58 | NC(=O)C1CCCC1NS(=O)(=O)CCc1cccs1 (configuration not stated) | -2% | 0.36
59 | Cc1cc(C)cc(-c2nn(CN(CCC#N)CCC#N)c(=S)o2)c1 | -10% | 1.81
60 | CCn1c([C@H]2CCN(C(=O)Cc3ccccc3OC)C2)nc2cccnc21 | -11% | 1.21
61 | CCCc1cc(-c2nc(-c3ccc(-n4nc(C)cc4N)cc3)no2)n(C)n1 | 71% | -14.18
62 | O=C(CN1CCN(c2cccc3[nH]cnc23)CC1)NC1CC1 | -11% | 1.83
63 | Cc1ccc(Nc2nc(N3CCCC3)nc3nccnc23)cc1C | -9% | 1.03
64 | CCc1csc(Cn2cc(-c3ccc(F)c(OC)c3F)nn2)n1 | -13% | 1.21
65 | O=C1NCC2(CCN(C(=O)c3csc4ccccc34)CC2)O1 | -18% | 2.72
66 | COC1CCCC(CC(=O)Nc2cnccc2OC(C)(C)C)C1 (configuration not stated) | 6% | -0.67

Row | Compound | % Inhibition | Z score
67 | O=C(C1CCCC(F)(F)C1)N1CCCC(OCC2CC2)C1 (configuration not stated) | -5% | 0.52
68 | COC[C@@H]1CCCN1C(=O)Cn1nc(C)n(-c2ccc3c(c2)OCO3)c1=O | 7% | -1.34
69 | CCC(C)N(CC(=O)N(Cc1ccco1)CC1CCCO1)C(=O)Cc1ccccc1 (configuration not stated) | -7% | 0.99
70 | Cc1ccc2nsnc2c1NS(=O)(=O)c1ccc(C2CCCCC2)cc1 | 2% | -0.31
71 | Cc1ccc(CC(=O)NC(C)(C)C#N)cc1Br | -4% | 0.74
72 | O=C(c1ccc2c(c1)CCC2)N1CC(n2ccnn2)C1 | -1% | 0.08
73 | CC(C)[C@@H]1CN(Cc2nc(=O)[nH][nH]2)CCCO1 | -1% | 0.11
74 | CCc1ccccc1NC(=O)Cn1c(C)nc2c(c1=O)CCCC2 | -4% | 0.46
75 | O=C1CC[C@H](N2CCN(c3ccccn3)CC2)CCN1Cc1cc2c(cc1Cl)OCO2 | 1% | -0.11
76 | COc1ccc(S(=O)(=O)N2CCC3(CCC(=O)N3Cc3c(C)noc3C)CC2)cc1 | -15% | 2.21
77 | Cc1ccc(O[C@H]2CCCN(C(=O)c3ncccn3)C2)nn1 | -4% | 0.7
78 | c1cc(N2CCCO[C@@H](CN3CCCCC3)C2)ncn1 | -7% | 0.88
79 | CS(=O)(=O)C[C@H](NCc1nnsc1Cl)c1ccccc1 | -9% | 0.87
80 | COc1cccc(CN2C(=O)C3(CCOCC3)C[C@H]2c2nnnn2C(C)(C)C)c1 | -2% | 0.25
81 | CCN1C[C@@H](C(=O)N(Cc2ccccc2)c2ccccc2)CC1=O | -9% | 1.71
82 | Cc1cc(CNC(=O)Cc2cnc3c(C)cccn23)n(C)n1 | 19% | -2.46
83 | CN1C[C@H](NC(=O)C(=O)NC2CCCC2)C[C@H]1CO | -9% | 1.61
84 | Cc1cc(OCc2ccn(C3CCCC3)n2)ccc1C#N | -8% | 1.51
85 | Cn1ccc(C(=O)N2Cc3ccccc3-c3ccccc32)cc1=O | -9% | 1.39
86 | C=CCNC(=O)NCc1ccc(C)nc1OC | -17% | 2.78
